Data on 78 sequences can be found in the supplement of paper PMC10126150.

Values marked as one replicate rest on one cluster of the flow cell; about a third of the high ones do not repeat.

The test system of this data set is ATP. Nature of the data set: switch fluorescence ratio, 500 uM ATP over buffer (Cy3 cluster intensity, sum of 5 cycles each) (fold (ratio)); higher = stronger signal-on switching upon ATP binding; sequences stand for … in TCGTCGGCAGCGTCAGATGTGTATAAGAGACAGTTTTTTTTTTTTTTTTTTTTTTTTT…TC. The following applies: aptamer strand: ATP DNA aptamer (quencher-CACCTGGGGGAGTATTGCGGAGGAAGG + anchor), 100 nM annealed; ATP concentration: 500 uM; one replicate. In outline: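 Imaging in selection buffer was followed by imaging after 15 min with 500 uM ATP at 22 °C, for Cy3-labelled switching-strand clusters annealed to 100 nM quencher-labelled ATP aptamer on a modified Illumina MiSeq flow-cell. Five of these buffer/ATP cycles ran, separated by NaOH stripping and re-annealing. The fluorescence ratio per cluster is summed target-cycle over summed buffer-cycle Cy3 intensity, averaged per switch-domain sequence; clusters outside 100-1000 RFU were removed.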
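Further: ATP exposure 15 min at 22 °C before imaging.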

TGCCTCGGGT: the switch fluorescence ratio was 1.02. Turning to CAACGATTAC, the switch fluorescence ratio was 2.04. On to TGTGCCTCTG, for which the switch fluorescence ratio stood at 1.04. The result for ACCATGTTGC reads 1.01; that for AGCGATCATT, 1.03. CGGTTAGGTT: the switch fluorescence ratio worked out at 0.966. In the case of ATCGTCACGC, the switch fluorescence ratio is 1.04.

With AAATAAGCCG, the switch fluorescence ratio was 1.08.

AAAGTATAG: the switch fluorescence ratio came to 1. Regarding AGAACGTAAC, the switch fluorescence ratio was found to be 1.41.

In the case of CTATTAGTTA, the switch fluorescence ratio amounted to 0.981. Turning to GTCATCGCTG, the switch fluorescence ratio came to 0.993.

In the case of CGATATTTCT, the switch fluorescence ratio worked out at 0.991. For the sequence GAGAAGGAGT, the switch fluorescence ratio is 1.04. As for TTTATCTAAA, the switch fluorescence ratio stood at 1.02.

Consider CTTGTACTCT, for which the switch fluorescence ratio stood at 1. For TTACGTGGTA, the switch fluorescence ratio turned out to be 0.971. The result for TGCCAAACGC reads 1.18.

ACCCGAATCG: the switch fluorescence ratio worked out at 1.03. Turning to CGGAGGCCAG, the switch fluorescence ratio turned out to be 1.07.

Consider TTAGGACGGA, for which the switch fluorescence ratio is 1.03.

Take TTGACGAAC: the switch fluorescence ratio worked out at 1.37. As to CGTATACGGG, the switch fluorescence ratio was 1.04. In the case of ATTGCGTTCT, the switch fluorescence ratio worked out at 0.969. In the case of TAAGGCAAGT, the switch fluorescence ratio is 1.01. Next, TCGGGGCCAC: 1.13; GTCGGAGCTA: 1.39.

For the sequence GGCGACTGGG, the switch fluorescence ratio was 0.923. Turning to GTATGTTGGT, the switch fluorescence ratio was 0.945. With ATCGCAGCGG, the switch fluorescence ratio came out at 1.05. The result for CATATCGGTC reads 0.946; that for AACTGACGAG, 1.03; that for AGTAGATGTA, 1.03.

Turning to CCTACTTTCA, the switch fluorescence ratio is 0.968.

For the sequence GCGGGCTGGG, the switch fluorescence ratio worked out at 1.01. With TCAATGGTCG, the switch fluorescence ratio came out at 1.12. For the sequence CATGCATGGG, the switch fluorescence ratio came to 1.02. ATGATTCTCT: the switch fluorescence ratio is 1.02. On to CTTCTCAATG, for which the switch fluorescence ratio was found to be 1.07. Next, TTCCGCCGGT: 1.18; TTGCGTTTGG: 0.961. Turning to ATTCAGACAA, the switch fluorescence ratio is 1.02. As for ACGTTAAATT, the switch fluorescence ratio was determined as 1.13. Next, TGCAGGTAGC: 0.941; AATGGAATAC: 3.49; AGACACGAGT: 1.03.

With TCTTGTGGTA, the switch fluorescence ratio was 0.984. Regarding ACTCCTAGAA, the switch fluorescence ratio stood at 1.16. As for ATGCGGCGTA, the switch fluorescence ratio was found to be 1.03. With TGGAGACAGG, the switch fluorescence ratio stood at 1.1. TTGTGAACGT: the switch fluorescence ratio came to 1.01. The result for CCATATTACT reads 1.08; that for CAGGTGCCCT, 1.27. For CTGCAAGTCT, the switch fluorescence ratio stood at 1.16. With AGTAGGTCT, the switch fluorescence ratio was found to be 0.947.

For CATGGATGGG, the switch fluorescence ratio is 1.01. Turning to ATATCAACA, the switch fluorescence ratio came to 1.02.

On to ATCATTTGAA, for which the switch fluorescence ratio stood at 0.99. For ACTGGTCCTC, the switch fluorescence ratio is 1.07. Next, TGGAGCGCAC: 1.6; CAAAAGCTTC: 1.12. On to AATGTCTAGC, for which the switch fluorescence ratio came to 0.974.

In the case of TCATGACGGG, the switch fluorescence ratio is 0.99.

As to GGGCATATCC, the switch fluorescence ratio is 1.06.

For AATCAGTCAC, the switch fluorescence ratio worked out at 1.03.

Regarding TGTGAGCTAG, the switch fluorescence ratio was 0.995. As to CGTTAAAGCT, the switch fluorescence ratio worked out at 1.13. Regarding GATGTCATAG, the switch fluorescence ratio was 0.98. For TGTTATTAGG, the switch fluorescence ratio worked out at 0.951.

Regarding GTTGCCGCCC, the switch fluorescence ratio was determined as 1.01. The result for CGTGAGGTGC reads 1.11. Turning to AGAACCAGTG, the switch fluorescence ratio worked out at 1.08.

As to ATGCTTTGT, the switch fluorescence ratio stood at 0.948. Next, GTATATGAAT: 0.992; AGCCGGGGCG: 1.08.

With CAGTACCCTG, the switch fluorescence ratio was determined as 1.02. With CCAGCTGGTT, the switch fluorescence ratio worked out at 1. Next, CGCTAGGAGC: 1.04.
